Among all 230,000 compounds or so, about 1,500 (0.65%) were called active. The inconclusive results got no clear call from the source; some entries with a clear call stand among them for comparison. Calls follow the shape of the dose curve; as a rule, active = well fitted inhibition curve with a large enough effect; inconclusive = small, poorly fitted or top-dose-only effect; inactive = no such curve, though single readings can be large or run the other way. Potencies beside an inconclusive call are fits to weak or partial responses and may not hold up.
Target: Lethal(3)malignant brain tumor-like protein 1 (Homo sapiens) (UniProt Q9Y468)
Chain of UniProt Q9Y468 (Q9Y468 whole entry, looked up): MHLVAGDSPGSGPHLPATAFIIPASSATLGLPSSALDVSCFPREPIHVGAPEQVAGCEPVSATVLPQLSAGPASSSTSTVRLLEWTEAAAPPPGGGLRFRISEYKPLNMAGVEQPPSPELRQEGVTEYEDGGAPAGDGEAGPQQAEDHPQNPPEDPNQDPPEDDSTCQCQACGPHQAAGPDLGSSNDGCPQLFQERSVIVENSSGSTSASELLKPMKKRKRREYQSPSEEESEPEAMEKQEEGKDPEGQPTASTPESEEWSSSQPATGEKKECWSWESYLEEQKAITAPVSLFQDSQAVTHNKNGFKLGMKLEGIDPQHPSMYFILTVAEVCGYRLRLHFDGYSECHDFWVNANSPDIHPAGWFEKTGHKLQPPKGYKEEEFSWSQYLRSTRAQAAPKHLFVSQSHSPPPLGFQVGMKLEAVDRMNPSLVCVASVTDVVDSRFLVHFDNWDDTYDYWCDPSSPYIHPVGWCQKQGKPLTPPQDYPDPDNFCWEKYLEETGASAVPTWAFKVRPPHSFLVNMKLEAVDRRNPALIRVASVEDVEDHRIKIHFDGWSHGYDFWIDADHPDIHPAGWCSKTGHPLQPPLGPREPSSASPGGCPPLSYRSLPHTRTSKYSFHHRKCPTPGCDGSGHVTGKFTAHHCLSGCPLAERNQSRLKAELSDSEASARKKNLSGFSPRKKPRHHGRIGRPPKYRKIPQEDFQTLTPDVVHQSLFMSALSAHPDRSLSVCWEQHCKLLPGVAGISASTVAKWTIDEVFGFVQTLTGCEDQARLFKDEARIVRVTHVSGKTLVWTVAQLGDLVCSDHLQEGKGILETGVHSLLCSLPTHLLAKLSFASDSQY
Assay: qHTS Assay for the Inhibitors of L3MBTL1; also: nearly all actives have a fitted effect of over 60% in size
Settings: AlphaScreen L3MBTL1–H3K9me1 peptide binding; activity, negative = inhibition: at 57.1 µM (top of the series)
Procedure, shortened: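 AlphaScreen proximity signal between nickel-chelate acceptor and streptavidin donor beads (final 10 ug/mL) reports binding of 50 nM L3MBTL1 to 75 nM biotin-H3 K9me1 peptide; complex incubated with compounds 30 min at room temperature; cefsulodin titration as control.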
% is scaled to controls: 0 for no effect and ±100 for the full control effect; potency is read from the fitted curve at half-maximal effect; tags tell the direction and shape of the fitted curve.

Compound | activity, negative = inhibition | Potency
O=C(c1ccc(Br)o1)N1CCN(c2ccccn2)CC1 | inactive: -16% [at 11.4 µM] | 
Cc1ncc([N+](=O)[O-])n1CCOC(=O)c1cc(Cl)cc(Cl)c1N |  | inconclusive: 28.2 µM [inhibitor, single point]
COc1ccc(/C=C2\CCc3ccccc3C2=O)cc1CN1CCOCC1 |  | inconclusive: 22.4 µM [inhibitor, single point]
N#Cc1cnn2ccc(-c3ccc4c(c3)CCC4)nc12 |  | inconclusive: 6.31 µM [inhibitor, single point]
CCCn1c(SCC(=O)Nc2ccc(OCC)cc2)nnc1C(C)C |  | inconclusive: 7.08 µM [inhibitor, single point]
O=C(/C=C/c1cccc([N+](=O)[O-])c1)N1CCOCC1 |  | inconclusive: 6.31 µM [inhibitor, single point]
COc1cc(C(O)C(=O)O)ccc1O (centres undefined) |  | inactive
CCCc1nc2ccccc2c(=O)n1/N=C/c1ccccc1O |  | inactive
CN=c1scc(-c2cc(OC)ccc2OC)n1/N=C/c1c(C)[nH]c2ccccc12 |  | inconclusive: 10 µM [inhibitor, partial curve]
O=C1COc2ccc(C(=O)COC(=O)/C=C/c3ccc(Br)o3)cc2N1 |  | active: 3.55 µM
O=C(O)c1ccccc1Nc1cccc(OCc2ccc3ccccc3n2)c1 |  | inconclusive: 35.5 µM [inhibitor, single point]
CC1=C/C(=C(/c2ccc(O)c(C)c2)c2ccccc2S(=O)(=O)O)C=CC1=O |  | inconclusive: 35.5 µM [inhibitor, single point]
CCOc1ccccc1/C=N/N1CCN(Cc2ccccc2)CC1 |  | inactive
CCOC(=O)N1CCC(NC(=O)CN2C(=O)CSc3ncccc32)CC1 |  | inconclusive: 39.8 µM [inhibitor, single point]
CCOC(=O)c1ccccc1NC(=O)c1cn(CC)c2nc(C)ccc2c1=O |  | inactive
COc1ccc(C(=O)N2CCC(c3ccccc3)CC2)c(OC)c1OC |  | inconclusive: 0.631 µM [inhibitor, full curve, poor fit]
CC(C)CNS(=O)(=O)c1ccc(CCC(=O)N2CCN(c3ccc(F)cc3)CC2)cc1 |  | inactive
O=C(NCc1ccccc1)C1=C[C@@H](c2ccc(Br)cc2)C[C@@H](OCCCCO)O1 |  | inactive
COc1ccc(N2CCN(C(=O)C3CCC(Cn4c(=S)[nH]c5ccccc5c4=O)CC3)CC2)cc1 (centres undefined) |  | inconclusive: 2.51 µM [inhibitor, single point]
N#CC1=C(N)n2c(s/c(=C\c3ccco3)c2=O)=C(C#N)C1c1ccco1 (centres undefined) |  | active: 25.1 µM
CCOc1ccc(C(=O)NCC(C)NC(=O)c2ccc(OCC)cc2)cc1 (centres undefined) |  | inactive
CC(=O)Nc1ccc(S(=O)(=O)NCC(=O)NNC(=O)COc2ccccc2Cl)cc1 |  | inactive
Cc1ccccc1C(=O)Nc1ccc(N2CCCCCC2)cc1 |  | inconclusive: 11.2 µM [inhibitor, partial curve]
C=CCSc1nnc(NC(=O)CSc2nc(CCC)cc(=O)[nH]2)s1 |  | inactive
O=C(CSc1nc2ccsc2c(=O)n1Cc1ccc(C(=O)O)cc1)NCc1ccco1 |  | inconclusive: 28.2 µM [inhibitor, single point]

Compound | activity, negative = inhibition | Potency
CCCOC(=O)CCCCCCCCC(O)CN1CCCCC1 (centres undefined) |  | inconclusive: 0.141 µM [inhibitor, full curve, poor fit]
CC(=O)c1cccc(CN2CCC(CO)(CCCc3ccccc3)CC2)c1 |  | inconclusive: 0.631 µM [inhibitor, single point]
O=C(CC1C(=O)CCCC1=O)c1ccccc1 |  | inconclusive: 15.8 µM [inhibitor, partial curve, poor fit]
S=C(Nc1ccccc1)Nc1nc2ccccc2n1CCOc1ccc(Br)cc1 |  | active: 6.31 µM
Cc1cc(C2C(C#N)=C(N)SC(N)=C2C#N)c(C)s1 | inactive: -5.49% [at 11.4 µM] | 
C/C(=N\NC(N)=S)c1ccc2c(c1)OCCO2 |  | inactive
CCc1nnc(NC(=O)CSc2nnc(-c3ccc(S(=O)(=O)N4CCCC4)cc3)n2CC)s1 |  | inconclusive: 3.98 µM [inhibitor, single point]
CCn1cnc2c1c(=O)n(CC(=O)NCc1ccccc1)c(=O)n2Cc1ccccc1 |  | inactive
C/C=C/C(=O)Nc1nnc(C(C)C)s1 |  | inconclusive: 4.47 µM [inhibitor, single point]
O=C1C(=C2CCCCC2)SC(=S)N1Cc1ccco1 |  | inconclusive: 31.6 µM [inhibitor, single point]
CNC1=C([N+](=O)[O-])CC([N+](=O)[O-])=C(N2CCNCC2)N1C |  | inactive
CCOc1ccc(CN2CCN(Cc3ccc(C)o3)CC2CCO)cc1 (centres undefined) |  | inconclusive: 35.5 µM [inhibitor, single point]
N#Cc1ccccc1OCCOCCNC1CCCC1 |  | inactive
CN(C)c1ccc(Nc2ccc([N+](=O)[O-])cn2)cc1 |  | inactive
Cc1cccc(N2CCN(Cc3nc(-c4cccc(Oc5ccccc5)c4)oc3C)CC2)n1 |  | inconclusive: 25.1 µM [inhibitor, partial curve]
CC(=O)c1ccc(NC(=O)c2cn(-c3ccccc3)nc2-c2ccncc2)cc1 |  | inconclusive: 5.01 µM [inhibitor, single point]
COC(=O)N/N=C/c1cc(C)n(-c2ccc(Br)cc2)c1C |  | inactive
O=[N+]([O-])c1ccc(/C=N/N/C(=N/c2ccccn2)c2ccccn2)cc1 |  | inactive
CSc1nc(N(C)NC(=O)c2ccc(Cl)cc2)c2ccccc2n1 |  | inactive
Cc1ccn2c(=O)nc(SCC(=O)Nc3cccc4ccccc34)nc2c1 |  | inconclusive: 28.2 µM [inhibitor, partial curve]
N#C/C(=C\c1ccc(-c2ccc(C(=O)O)cc2)o1)C(=O)Nc1ccc(F)cc1 |  | inconclusive: 39.8 µM [inhibitor, single point]
COc1ccc(CNc2ccc(C)cc2)cc1Br |  | inconclusive: 44.7 µM [inhibitor, single point]
N#Cc1c(NC(=O)CSc2nnnn2C2CCCCC2)sc2c1CCCC2 |  | inactive
O=C(COC(=O)c1cccc(Br)c1)NCC1CCCO1 (centres undefined) |  | inactive

Reference: PubChem BioAssay AID485360 (National Center for Advancing Translational Sciences (NCATS), 2010)
